The values that follow come from publication PMC10726135.

This is one part of the list. At the low end of the ranking, values are background and their order means little. The protein was read in a cell extract, so binding may be indirect.

The assay addresses T1, HNF4alpha2 (COS-7 nuclear extract) (UniProt P41235).
T1 sequence: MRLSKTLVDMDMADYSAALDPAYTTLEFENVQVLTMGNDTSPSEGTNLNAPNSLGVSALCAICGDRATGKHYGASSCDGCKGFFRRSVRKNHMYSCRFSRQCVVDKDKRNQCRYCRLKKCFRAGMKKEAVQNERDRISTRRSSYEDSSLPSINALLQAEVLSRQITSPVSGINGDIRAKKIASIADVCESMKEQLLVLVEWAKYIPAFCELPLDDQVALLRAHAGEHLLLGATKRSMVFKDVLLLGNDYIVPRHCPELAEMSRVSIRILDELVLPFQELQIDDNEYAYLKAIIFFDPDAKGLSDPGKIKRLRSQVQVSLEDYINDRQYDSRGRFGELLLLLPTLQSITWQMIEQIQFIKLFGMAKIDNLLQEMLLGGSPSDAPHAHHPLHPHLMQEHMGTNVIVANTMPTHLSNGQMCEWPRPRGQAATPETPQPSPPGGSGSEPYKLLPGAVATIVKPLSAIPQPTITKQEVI
Nature of the assay: protein-binding microarray. The settings on record: COS-7 nuclear extract on double-stranded Agilent 4x180k PBM; binding buffer, salt, pH and temperature not given; high values mean tight binding; double strand, one strand shown; sequences stand for … in …GCCTAGGGAGATTAGAGTATCGGTCGA
With CCCCTAGTATATTGGCTTGGCTGTGTCCCT, the binding signal (log2 normalized intensity) was 1.67.
For CTCAGGTCAGGGAAGACTGATAAGAAAACT the value was -0.891; for TAAGGTGGGAATGCTGATCAAGTGTCTCTA, 0.762; for TAACCTTTGGGTGTGTTCAGCGAGGAATGT, 2.01.
Turning to CCCTTGATCAAAAACTGCCTAAATCCAAAG, the binding signal (log2 normalized intensity) is -1.2.
For GAAGGTCCTTCACTAAAGTTACAAGATCTT the value was -0.273.
Take ACGCTGGTCAGCATCCTGCTTGTGAGACCG: the binding signal (log2 normalized intensity) is -0.854.
On to TCAGCTCATTCAAAGTCCAAAAAGAATCAG, for which the binding signal (log2 normalized intensity) came out at 1.8.
For CTTTAGTTCAGGGAAGAGGGCACTCAGGCT the value was -1.1.
For CGGGGGCCCTTCCCCCCTCTGCAGCCTTAC the value was 3.11.
For CTCCAGACACGGGGATAACACCTGCCTTAG the value was -1.3; for ATTTGTTAAGAACTGGAGTAAAGGTCACTC, 4.15; for ATATCTATATGTTTACATATCACTGTACTC, 2.08.
Consider GCCTGCATTGGAGGCCCTCTGTTGCTTCAA, for which the binding signal (log2 normalized intensity) is -0.781.
For GGATGGCATGTCTCTGGTCGGGGAGGTGTT the value was 1.53; for CCAGCTGGTAAATAAAGGAACTTACGAAGA, -1.04; for GAGATTCCTCTGCACAATAAAACTTGGTCG, 0.213.
For AAGGGAGTAAAGGTCGTTCTATCGGAGAAC the value was 3.52.
For AGTCAGTCAAAATGAATAGTCCTTTAGGAA the value was 0.881; for TCTTTTTGTTGTTAGAACAAAGTCCAAATT, 5.22; for AAAGTCCGGAATTTCCTCCTGGCAGAGCAT, -0.948.
Consider TTGTTAGACCCTTATCAGTAGTTCTCCTTT, for which the binding signal (log2 normalized intensity) was 0.646.
For TCCCGAAAGTGACCCTCTGCCCCCTACACA the value was 5.37; for GGTCCAAGGTTCAGAGCCTGGCTGGCCTGG, 0.818; for CCCCACTGAAAGTGTGTTAAATTGAATTGG, 0.972.
For CAGAGTCACCTGTAGGGATGTGGGACTTAA the value was -0.0571.
For ATTCTCCCATTTTATGGGCTAACGCTGCTG the value was -0.681; for AGGGTTGAAGAAAGATCACACAAATGGATC, -1.15.
In the case of CAACATGGACTTTGAGTCATAAGAAACATT, the binding signal (log2 normalized intensity) was found to be 3.72.
With CCTCAGTGTGGGACTTTGGTCTGCTGAGTC, the binding signal (log2 normalized intensity) was determined as 3.36.
For CTCTGAATCCTCAACATCCAGCACAGTGCT the value was -1.25.
For CTGTTGTGACATACTGCCTTTCTAGAACCA the value was -0.661; for ATTCGTTCATCAGATTAGAAGGCAGAGAAA, 0.773.
For GGGCAGGGTCAGAACCTGCCCATGACCTTT the value was 5.92; for TGTCTACAAACACAGAAGTGGACCTTCACC, 4.86.
Take GCAAGGGTGGTGACAAAGACAGATTAGATC: the binding signal (log2 normalized intensity) was found to be 0.843.
For AATCTCTCAAATCTAGCCAATGATGCTAGC the value was -1.21.
For CCTCCAATCAGGACAGACTGGTTGATCTGG the value was 0.575; for CAATCCCATGACCTTTGTACTAATGATTTG, 5.84; for CCAAATAGGTCCCTGCTTCCAAGTCTCAGC, -1.1.
CGCAGATCCCCGCTCCCCTCCCCCACCCGC: the binding signal (log2 normalized intensity) was 6.35.
For CAATCTTCTGGCCCCATCTATCTAGCCTGA the value was 0.757.
For CTGATCACTACAAGCTTTGAAGGCAAGATA the value was -1.13; for TCTAGGGTTGCCCAGGGAGAGCTGGACTTT, 6.11.
Turning to ATTGTGCTGACTGGTTGGAATTCCAGTGTT, the binding signal (log2 normalized intensity) was 1.17.
For TCTGCCGAAGATATTTAACCTAAATCTAGT the value was -1.14; for AACTATTGAGACTTTGGGGTTTTATGGCAC, 1.27.
For ATCAAACAGATGTAGACATTGGAATGCGGG the value was 0.957; for GAGATTACATTTGACTGAGGTGCAGGACAA, 0.246; for TCAACAATTCTATGAGTAGGTACAAATTCC, 1.78.
For AGGCCTTCAACTGATAAGAAGGGGCCTAGC the value was -1.17; for TGGGCCAGGTATTTGGACTTTTTGTAGTTT, 3.1.
For ACCCAGTGAATTCCTTCCTTATCAGCAGCC, the binding signal (log2 normalized intensity) is -0.73.
For CTTTTGAGGGTGACCGATCGTTATTGCCTT the value was 1.4.
For CTCAAAGTCCACCAACTCTGTGAATTCATT the value was 1.48; for GCGTAGTTCAGAGAAAACGAGGCACTATCT, -1.05; for AACCTGGCTGCGAGTCCCTGCTGTGTCACG, -1.2.
For GGGTTGAGTGGTGACTGAAGTCCAACCCTC the value was 2.21; for ATCAATACCAGCCAATTAGAAGGCTCCCTG, -1.19; for AGCTCCCCTTTTAAACTGAAGCATGCTATT, 1.38.
With AAGTGCAAGGGCCCAGAGGAAGGAATGCAC, the binding signal (log2 normalized intensity) was -1.04.
For GTCGAAACTACAAACGGATATTTGATCAAA the value was 0.511; for GGCGATAACTCCTTTGTGTGAATCGACCTT, 4.02.
For AGGGTACACACCGTTAGCCAATATTTGCAA the value was -1.11.
For TGTGATAAGAAATGAATGTCACTTTCTGAC the value was 0.229.
Turning to TCCATCATTCATACATTTGCCTGAACTTTA, the binding signal (log2 normalized intensity) was 2.3.
For AAATGTTATGGCTGGTTTGGTCTTTTATCT the value was 1.95; for CCATCCTACAGGGTATGAATTTAACCTTTG, 4.2.
For CCCTGGACCTTGTCATACTGGTTGAATGGA the value was 2.5; for AATTCACGTCATTTTGTCACCTACATGTGA, 1.67.
For GGGTACAGACAATAGGAAGAGTGAGGTCAC the value was 1.58.
TTATTTCCCCTTTCTGTTGGAAGCTGATAA: the binding signal (log2 normalized intensity) came out at 1.84.
